Assay results reported in PMC4336329 (PLoS ONE, 2015).
Among all 310,000 compounds or so, about 14,000 (4.5%) showed an effect of 50% or more. Effects have a minus sign here. The list shows a part of the results.

These compounds were tested against human ether-à-go-go-related gene (hERG) potassium channel (human, UniProt Q12809) (assay: primary screen, population patch clamp on CHO cells stably expressing hERG).
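Note: peak tail current of the secondary pulse compared with the same well before compound.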

human ether-à-go-go-related gene (hERG) potassium channel, sequence (Q12809 whole entry, looked up): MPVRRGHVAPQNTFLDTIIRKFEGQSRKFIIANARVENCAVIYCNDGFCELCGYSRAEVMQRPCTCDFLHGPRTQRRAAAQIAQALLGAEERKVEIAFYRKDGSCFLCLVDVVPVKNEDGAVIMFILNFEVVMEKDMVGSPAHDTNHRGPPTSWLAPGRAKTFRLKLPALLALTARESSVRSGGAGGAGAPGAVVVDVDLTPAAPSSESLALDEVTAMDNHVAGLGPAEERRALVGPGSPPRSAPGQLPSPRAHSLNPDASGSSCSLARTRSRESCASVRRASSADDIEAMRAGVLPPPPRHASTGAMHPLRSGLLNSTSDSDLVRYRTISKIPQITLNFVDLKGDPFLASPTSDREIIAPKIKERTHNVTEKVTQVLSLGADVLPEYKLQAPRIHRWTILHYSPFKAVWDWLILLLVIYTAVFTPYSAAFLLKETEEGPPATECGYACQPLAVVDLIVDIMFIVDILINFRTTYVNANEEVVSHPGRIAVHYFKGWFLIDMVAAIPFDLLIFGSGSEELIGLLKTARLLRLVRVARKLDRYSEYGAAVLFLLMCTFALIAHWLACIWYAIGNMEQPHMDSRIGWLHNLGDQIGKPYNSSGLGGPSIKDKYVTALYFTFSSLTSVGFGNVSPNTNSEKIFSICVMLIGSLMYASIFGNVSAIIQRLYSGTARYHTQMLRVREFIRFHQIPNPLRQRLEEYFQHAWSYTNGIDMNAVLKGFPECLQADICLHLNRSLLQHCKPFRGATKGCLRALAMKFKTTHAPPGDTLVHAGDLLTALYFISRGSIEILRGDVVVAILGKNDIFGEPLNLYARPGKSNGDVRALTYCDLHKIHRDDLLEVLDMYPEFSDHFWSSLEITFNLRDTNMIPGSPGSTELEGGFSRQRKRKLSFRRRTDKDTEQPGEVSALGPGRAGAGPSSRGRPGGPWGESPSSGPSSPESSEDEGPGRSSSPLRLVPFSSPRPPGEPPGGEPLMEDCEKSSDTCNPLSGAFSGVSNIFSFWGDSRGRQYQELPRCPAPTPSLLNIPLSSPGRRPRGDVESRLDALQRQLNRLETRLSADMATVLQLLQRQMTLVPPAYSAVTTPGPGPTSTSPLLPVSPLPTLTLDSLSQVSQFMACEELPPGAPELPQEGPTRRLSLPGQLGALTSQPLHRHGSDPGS

| Compound | hERG current change (%, negative = inhibition) at 10uM [%] |
| --- | --- |
| CSc1ccccc1NC(=O)CN(C)CC(=O)c1c(C)[nH]c2ccccc12 | -0.896 |
| Cc1ccccc1-c1nnc(-c2ccc(Br)cc2)o1 | 7.83 |
| CCOc1cc(/C=N/O)ccc1OCc1ccccc1F | -6 |
| O=C(NCCCN1CCOCC1)c1cccc(NS(=O)(=O)c2ccc(Br)cc2)c1 | -19.9 |
| CC(NC(=O)C1CCN(C(=O)[C@@H]2Cc3ccccc3CN2)CC1)c1ccccc1 (stereo partly drawn) | -25.7 |
| CC(/C=C/c1ccc2c(c1)OCO2)=N/NC(=O)CNc1ccc(C)cc1 | 11.3 |
| CCNC(=O)NC(=O)C(C)OC(=O)Cc1coc2cc3c(cc12)CCC3 (stereo not drawn) | 26.6 |
| Fc1ccc(C2CC(c3ccco3)=Nc3ccccc3S2)cc1 (stereo not drawn) | 12.1 |
| CCc1cccc(NC(=O)NC2CCCCC2)c1 | 18 |
| COC(=O)N[C@H](c1ccccc1)[C@@]1(C)C[C@@H]1[C@@H](C)C(=O)Nc1ccc2ccccc2c1 | 2.1 |
| CN1CCN(CC(=O)Nc2ccccc2Sc2ccccc2)CC1.O=C(O)C(=O)O | -65.3 |
| CCCCCC(O)(c1ccc(OCC)cc1)C(CN1CCOCC1)c1ccccc1.Cl (stereo not drawn) | 11.1 |
| CCOC(=O)COc1ccc2c(=O)cc(-c3ccccc3)oc2c1 | 2.54 |
| FC(F)(F)c1nnc2ccc(N3CCOCC3)nn12 | 11 |
| COc1cccc(C2/C(=C(\O)c3ccc4c(c3)OCCO4)C(=O)C(=O)N2CCCN2CCOCC2)c1OC (stereo not drawn) | 9 |
| COCCCn1c(SCC(=O)Nc2ccc(NC(=O)c3ccco3)c(OC)c2)nc2ccccc2c1=O | -12.4 |
| Cn1nccc1C(=O)Nn1cnnc1 | 14 |
| Cc1cccc(N(Cc2ccccc2)C(=O)c2ccc(CS(C)(=O)=O)cc2)c1 | -9.49 |
| CC1CC(C)CN(C2CCCCC2NS(=O)(=O)c2ccc(Cl)cc2)C1 (stereo not drawn) | -30.9 |
| Cc1cccc(OCc2nnc(SCn3nnc4ccccc4c3=O)o2)c1 | -22.4 |
| O=c1[nH]cccc1-c1nc2cc(Cl)ccc2n1Cc1ccccc1 | -12 |
| O=C(N/N=C1\CCCc2ccccc21)c1cccc(Br)c1 | -2.72 |
| CC(C)Cc1cc(C(=O)O)c2ccccc2n1 | 0.924 |

| Compound | hERG current change (%, negative = inhibition) at 10uM [%] |
| --- | --- |
| COc1cc(C(=O)Nc2cc(C(F)(F)F)ccc2Cl)cc(OC)c1OC | 7.4 |
| Cc1cccc(/C=N/NC(=O)c2ccc(NC(=O)c3ccccc3C)cc2)n1 | 0.216 |
| N/C(=N\N=C\c1ccc([N+](=O)[O-])cc1)c1nonc1N | 16.1 |
| COc1cc(C(=O)NCc2nnc(SCC(=O)N3CCOCC3)o2)cc(OC)c1OC | 17.2 |
| CCOc1ccc(CCNC(=O)COC(=O)c2cccc(S(=O)(=O)N3CCCCC3)c2)cc1OCC | -27.4 |
| CC(C)C(NC(=O)c1ccc(C(C)(C)C)cc1)C(=O)N1CCC(C(N)=O)CC1 (stereo not drawn) | -5.72 |
| CN(C(=O)COC(=O)c1ccc2c(c1)OCO2)c1c(N)n(Cc2ccccc2)c(=O)[nH]c1=O | 11.6 |
| CN1C(=O)/C(=C/c2ccc(Cl)s2)C(=O)NC1=S | 21.2 |
| CC(=O)OCc1cc2cccc(C)c2[nH]c1=O | -9.76 |
| CN(CC(=O)Nc1ccc(Cl)c(C(F)(F)F)c1)C(=O)c1cccnc1Sc1ccccc1 | 15.1 |
| CCOC(=O)C1=C(C)NC(C)=C(C(=O)OC)C1c1cccc(Cl)c1Cl (stereo not drawn) | -7.89 |
| COC(=O)N1C(=O)[C@](c2ccsc2)(C(C)C)N1C(=O)OC | 17 |
| O=C(N/N=C/c1ccc(C(=O)O)cc1)C(=O)N1CCCCCC1 | 8.92 |
| C=CCn1c(SC(C)C#N)nc2sc(CC)cc2c1=O (stereo not drawn) | -41.2 |
| CCN1C(=O)CC(c2cccnc2)=Nc2ccccc21 | 32.2 |
| COc1cccc2c1OC[C@@H](CO)[C@H]2N(C)C(=O)Nc1ccccc1 | -1.26 |
| COc1cc(/C=C/c2ccc3c(Br)cc(Br)c(O)c3n2)ccc1O | 17.2 |
| COc1ccc(-c2cc(C(F)(F)F)nc(SCC(=O)Nc3cc(C)on3)n2)cc1 | 23.5 |
| Cc1ccc2nc(-c3ccc(NC(=O)COCC(=O)O)cc3)sc2c1 | 20.7 |
| CCOC(=O)CSc1nc(N)c(C#N)c(-c2ccc(OC)cc2)c1C#N | 17.2 |
| COCCNC(=O)CN(c1cc(Cl)ccc1OC)S(C)(=O)=O | -6.69 |
| CCCN(c1ccc(OCC)cc1)S(=O)(=O)c1ccc2c(c1)NC(=O)CO2 | 17.4 |
| CCOc1ccccc1C(=O)NCCC(=O)O | 8.38 |

| Compound | hERG current change (%, negative = inhibition) at 10uM [%] |
| --- | --- |
| COc1ccc(CCC(=O)N/N=C\c2cccs2)cc1 | 7.5 |
| O=C(COc1cccc(Br)c1)Nc1ccc(N2CCOCC2)cc1N1CCOCC1 | -50.6 |
| Cc1ccc(S(=O)(=O)NCCn2nc(C)cc2C)cc1 | 16.1 |
| COc1ccc(COc2cccc3ccc(C)nc23)cc1F | 19.8 |
| CCOc1ccc(-n2ccnc(SCC(=O)Nc3ccc(OC)cc3OC)c2=O)cc1 | 9.58 |
| O=C(Cn1cnc([N+](=O)[O-])n1)c1ccc(O)c(O)c1 | 22.6 |
| Cc1ccc(OCCC(=O)OC(C)C(=O)Nc2ccc(Cl)cn2)cc1 (stereo not drawn) | -35.2 |
| CC(=O)c1c(N2CCOCC2)nc2ccc(Cl)cc2c1-c1ccccc1 | -2.85 |
| CCN(CC)S(=O)(=O)c1ccc(C)c(NC(=S)NC2CCCCC2)c1 | -18.1 |
| CCCCN1CC(C(=O)NCc2ccc(C)cc2)CC1=O (stereo not drawn) | -11.7 |
| CCOc1ccc(Cc2c(C)[nH]c3ccc(C(=O)O)cc3c2=S)cc1 | -9.2 |
| CC(C)c1ccc(C(=O)CSc2n[nH]c(-c3ccncc3)n2)cc1 | 2.85 |
| COc1ccc(NC(=O)Nc2ccc3c(c2)CCC3)c(OC)c1 | 7.3 |
| O=C(NCc1ccco1)C1CCCN1C(=O)Nc1ccccc1Cl (stereo not drawn) | 14.7 |
| COc1cc(NC(=O)c2ccco2)c(OC)cc1NC(=O)CCC(=O)Nc1cc(C)ccc1C | -3.12 |
| O=C1c2cccc(O)c2C(=O)c2c(O)cccc21 | 2.23 |
| Cn1cccc1C(=O)c1ccc(Cl)cc1Cl | -15.4 |
| CN(C)CCCN(C(=O)c1cccc(N2C(=O)CCC2=O)c1)c1nc2cc3c(cc2s1)OCO3.Cl | -24 |
| CC(SCc1ccccc1)C(=O)N/N=C/c1ccc2c(c1)OCO2 (stereo not drawn) | -9.27 |
| CC1CCCN(CC(=O)Nc2ccc(S(=O)(=O)N3CCCCCC3)cc2)C1 (stereo not drawn) | -66.8 |
| O=C(Nc1nnc(COc2ccc(F)cc2)s1)c1cccs1 | 3.06 |
| O=c1ccccn1Cc1c(F)cccc1Cl | -3.93 |
| CN(c1cccc2cccnc12)S(=O)(=O)c1ccccc1 | -8.43 |

| Compound | hERG current change (%, negative = inhibition) at 10uM [%] |
| --- | --- |
| O=C(O)/C=C\C(=O)Nc1ccccc1C(=O)NC1CCCCC1 | 10.8 |
| O=S(=O)(/N=C(/NNS(=O)(=O)c1ccccc1)c1ccccc1)c1ccccc1 | 15.9 |
| Cc1nn(-c2ccccc2)c(C)c1NC(=O)COC(=O)c1cccc(OC(F)F)c1 | -38.1 |
| COc1ccc(NC(=S)NNC(=O)c2ccc(S(=O)(=O)N3CCOCC3)cc2)cc1 | 28.9 |
| O=C(NCc1cccc(Br)c1)c1cc(-c2ccccc2)nn1CC1CC(c2cccnc2)=NO1 (stereo not drawn) | -62.8 |
| CCOC(=O)C1CCN(C(=O)CN(c2ccc3c(c2)OCO3)S(C)(=O)=O)CC1 | -7.12 |
| Cn1nc(C(F)(F)F)cc1C(=O)Nc1ccc(Cl)cc1 | 3.41 |
| Cc1ccc(S(=O)(=O)CCC(=O)OCC(=O)NCCc2ccccc2)cc1 | -4.22 |
| CC(C)Cc1c(O)nc(SCC(=O)N2CCCCCC2)[nH]c1=O | 12.2 |
| Cn1c(=NC(=O)CN2C(=O)C3CC=CCC3C2=O)sc2ccccc21 (stereo not drawn) | -26.9 |
| Cc1cc2cc(CNS(=O)(=O)c3ccccc3)ccc2n1C | -5.19 |
| CCOC(=O)C(Cc1ccccc1)C(=O)NCc1ccccc1 (stereo not drawn) | 10.8 |
| CCOC(=O)CC(=O)Nc1ccccc1C(=O)O | -6.16 |
| Cc1ccc(OCCCSc2ncccn2)cc1C | -9.73 |
| CCOc1ccccc1NC(=O)Cn1nnc(C(=O)NCc2ccc3c(c2)OCO3)c1N | 1.75 |
| Cc1cccc2c1NC1(CCCC1)CC2C.Cl (stereo not drawn) | 16.9 |
| Cl.O=C(CSc1ncc(-c2ccc(F)cc2)[nH]1)N1CCCCC1 | -21.5 |
| CSc1ncccc1C(=O)N1CCCC(CCC(=O)NCc2ccccc2F)C1 (stereo not drawn) | 6.52 |
| CCC(OCC(O)CN1CCCCC1)c1ccccc1.Cl (stereo not drawn) | 16.9 |
| O=C(Nc1ccc2nc(-c3cccnc3)[nH]c2c1)c1ccccc1F | -2.82 |
| Cc1nnsc1-c1nnc(SCC(=O)c2ccccc2)n1C1CC1 | 0.696 |
